Assay results as given in PubChem BioAssay (NCATS).
“And” between values parts separate entries of the source, which are not always exact repeats. Equal entries are not always repeated. Inconclusive means that the source gave no clear call. Such entries were picked first, then a sample of the others. Potencies of inconclusive entries are doubtful fits and often do not repeat. The source made the active and inactive calls. The call rests on the fitted dose curve; in most records, active means well fitted cell-killing curve with a large enough effect; inconclusive means small, poorly fitted or top-dose-only effect; inactive means no such curve, though single readings can be large or run the other way.

Assay: qHTS of pediatric cancer cell lines to identify multiple opportunities for drug repurposing: Primary screen for NB-EBc1 cells (AID 1347095)
Conditions: NB-EBc1 neuroblastoma viability, CellTiter-Glo luminescence, 48 h; series mostly up to 46 µM
How it was run: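 Quantitative HTS format: each compound titrated (MIPE 11 points from 0.78 nM, NPC 8 points from 0.59 nM) onto cells plated 5 hours earlier. After 48 h at 37 degrees C, CellTiter-Glo luminescence was recorded.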
Potency means the concentration at half of the fitted maximal effect; tags describe the fitted curve by direction and shape.

Row | Compound | Potency
1 | CCN(CC)CCNC(=O)c1ccc2nc(-c3ccccc3)c(-c3ccc(CN4CCC(n5c(=O)[nH]c6ccccc65)CC4)cc3)nc2c1 | inconclusive: 33.2 µM [cytotoxic, single point]
2 | S=P(N1CC1)(N1CC1)N1CC1 | inconclusive: 57.3 µM [cytotoxic, single point] and active: 1.05 µM
3 | COc1ccc(-c2ccc3cc(C(=O)O)ccc3c2)cc1C12CC3CC(CC(C3)C1)C2 | inconclusive: 21.1 µM [cytotoxic, single point]
4 | O=C(Nc1cccc2c(=O)cc(-c3nn[nH]n3)oc12)c1ccc(OCCCCc2ccccc2)cc1 | inconclusive: 16.6 µM [cytotoxic, partial curve, poor fit]
5 | CNC(=O)c1c(-c2ccc(F)cc2)oc2cc(N(CCO)S(C)(=O)=O)c(C3CC3)cc12 | inconclusive: 9.35 µM [cytotoxic, full curve, poor fit]
6 | Cc1cc(OCCCS(C)(=O)=O)cc(C)c1-c1cccc(COc2ccc3c(c2)OC[C@H]3CC(=O)O)c1 | inconclusive: 20.9 µM [cytotoxic, partial curve]
7 | CCN(CC)CCOc1ccc(Cc2ccccc2)cc1 | inconclusive: 20.9 µM [cytotoxic, single point]
8 | CCCCN(CCCC)CC(O)c1cc(Cl)cc2c1-c1ccc(Cl)cc1C2=Cc1ccc(Cl)cc1 (centres undefined) | inactive
9 | CS(=O)(=O)Nc1ccc([N+](=O)[O-])cc1Oc1ccccc1 | inconclusive: 20.9 µM [cytotoxic, partial curve]
